Laboratory results: paper PMC7735600
Results are given in words; binding and its absence hold for the method and conditions named. In cells and extracts the contact can be indirect. Some results given as binding are weak or reduced against the parent protein; the word gives no strength. For some of these results: Sequences can lack the tags named with a protein.

Amino acid sequences for entries named in this document (tags omitted).
UniProt F5HDE4: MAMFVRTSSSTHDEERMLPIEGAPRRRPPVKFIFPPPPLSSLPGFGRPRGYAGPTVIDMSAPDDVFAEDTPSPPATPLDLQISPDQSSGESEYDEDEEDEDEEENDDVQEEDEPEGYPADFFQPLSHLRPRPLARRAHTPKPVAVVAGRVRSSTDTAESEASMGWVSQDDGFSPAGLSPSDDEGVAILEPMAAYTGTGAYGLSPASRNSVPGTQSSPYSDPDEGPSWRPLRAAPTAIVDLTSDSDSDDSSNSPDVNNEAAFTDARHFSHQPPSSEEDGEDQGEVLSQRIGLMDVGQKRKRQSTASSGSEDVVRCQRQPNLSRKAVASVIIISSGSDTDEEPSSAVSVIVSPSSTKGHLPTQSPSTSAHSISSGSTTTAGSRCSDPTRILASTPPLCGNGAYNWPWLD
UniProt Q7L804: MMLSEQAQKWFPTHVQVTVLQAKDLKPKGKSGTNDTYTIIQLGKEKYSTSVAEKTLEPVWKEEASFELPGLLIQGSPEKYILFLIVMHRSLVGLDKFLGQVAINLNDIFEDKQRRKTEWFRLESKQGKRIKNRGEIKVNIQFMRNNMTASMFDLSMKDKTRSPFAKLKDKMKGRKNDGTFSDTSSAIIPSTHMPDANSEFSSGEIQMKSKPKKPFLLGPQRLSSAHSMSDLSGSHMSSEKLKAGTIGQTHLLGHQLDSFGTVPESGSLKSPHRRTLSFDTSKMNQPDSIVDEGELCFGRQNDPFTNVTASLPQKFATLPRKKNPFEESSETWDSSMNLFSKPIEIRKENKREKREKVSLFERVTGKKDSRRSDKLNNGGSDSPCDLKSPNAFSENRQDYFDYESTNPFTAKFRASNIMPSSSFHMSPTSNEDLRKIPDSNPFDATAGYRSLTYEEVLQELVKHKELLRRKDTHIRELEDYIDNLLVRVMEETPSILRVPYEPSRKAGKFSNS

T1: Flag-tagged RAB11FIP5, full length (human) (UniProt Q9BXF6)
T1 sequence: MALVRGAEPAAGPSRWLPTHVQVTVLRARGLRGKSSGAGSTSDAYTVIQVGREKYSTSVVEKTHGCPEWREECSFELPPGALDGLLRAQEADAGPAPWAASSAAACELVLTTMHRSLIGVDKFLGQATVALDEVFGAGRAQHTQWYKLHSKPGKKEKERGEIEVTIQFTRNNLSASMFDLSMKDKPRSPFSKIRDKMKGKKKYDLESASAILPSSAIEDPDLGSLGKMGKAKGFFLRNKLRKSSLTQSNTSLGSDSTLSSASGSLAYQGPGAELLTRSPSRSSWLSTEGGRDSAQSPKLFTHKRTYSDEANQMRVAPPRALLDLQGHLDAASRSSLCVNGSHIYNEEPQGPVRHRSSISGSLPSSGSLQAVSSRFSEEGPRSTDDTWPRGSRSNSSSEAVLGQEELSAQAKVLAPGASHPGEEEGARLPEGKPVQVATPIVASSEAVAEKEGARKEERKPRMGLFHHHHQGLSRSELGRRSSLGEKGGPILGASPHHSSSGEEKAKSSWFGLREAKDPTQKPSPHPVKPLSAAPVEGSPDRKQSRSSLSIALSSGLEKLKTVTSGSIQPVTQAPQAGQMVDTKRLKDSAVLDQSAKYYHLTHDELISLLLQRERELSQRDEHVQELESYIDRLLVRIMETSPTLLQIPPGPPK

B1: HA-RAB11FIP3 (protein, UniProt O75154 1-756)
chain: MASAPPASPPGSEPPGPDPEPGGPDGPGAAQLAPGPAELRLGAPVGGPDPQSPGLDEPAPGAAADGGARWSAGPAPGLEGGPRDPGPSAPPPRSGPRGQLASPDAPGPGPRSEAPLPELDPLFSWTEEPEECGPASCPESAPFRLQGSSSSHRARGEVDVFSPFPAPTAGELALEQGPGSPPQPSDLSQTHPLPSEPVGSQEDGPRLRAVFDALDGDGDGFVRIEDFIQFATVYGAEQVKDLTKYLDPSGLGVISFEDFYQGITAIRNGDPDGQCYGGVASAQDEEPLACPDEFDDFVTYEANEVTDSAYMGSESTYSECETFTDEDTSTLVHPELQPEGDADSAGGSAVPSECLDAMEEPDHGALLLLPGRPHPHGQSVITVIGGEEHFEDYGEGSEAELSPETLCNGQLGCSDPAFLTPSPTKRLSSKKVARYLHQSGALTMEALEDPSPELMEGPEEDIADKVVFLERRVLELEKDTAATGEQHSRLRQENLQLVHRANALEEQLKEQELRACEMVLEETRRQKELLCKMEREKSIEIENLQTRLQQLDEENSELRSCTPCLKANIERLEEEKQKLLDEIESLTLRLSEEQENKRRMGDRLSHERHQFQRDKEATQELIEDLRKQLEHLQLLKLEAEQRRGRSSSMGLQEYHSRARESELEQEVRRLKQDNRNLKEQNEELNGQIITLSIQGAKSLFSTAFSESLAAEISSVSRDELMEAIQKQEEINFRLQDYIDRIIVAIMETNPSILEVK
B2: HA-RAB11FIP1 (protein, UniProt Q6WKZ4 1-1283)
chain: MSLMVSAGRGLGAVWSPTHVQVTVLQARGLRAKGPGGTSDAYAVIQVGKEKYATSVSERSLGAPVWREEATFELPSLLSSGPAAAATLQLTVLHRALLGLDKFLGRAEVDLRDLHRDQGRRKTQWYKLKSKPGKKDKERGEIEVDIQFMRNNMTASMFDLSMKDKSRNPFGKLKDKIKGKNKDSGSDTASAIIPSTTPSVDSDDESVVKDKKKKSKIKTLLSKSNLQKTPLSQSMSVLPTSKPEKVLLRPGDFQSQWDEDDNEDESSSASDVMSHKRTASTDLKQLNQVNFTLPKKEGLSFLGGLRSKNDVLSRSNVCINGNHVYLEQPEAKGEIKDSSPSSSPSPKGFRKKHLFSSTENLAAGSWKEPAEGGGLSSDRQLSESSTKDSLKSMTLPSYRPAPLVSGDLRENMAPANSEATKEAKESKKPESRRSSLLSLMTGKKDVAKGSEGENPLTVPGREKEGMLMGVKPGEDASGPAEDLVRRSEKDTAAVVSRQGSSLNLFEDVQITEPEAEPESKSEPRPPISSPRAPQTRAVKPRLEVSPEAQPTARLPSPTDSPSSLPPLPSSSGQASVPSELGHGADTQSSESPSVFSSLSSPIAAPISTSTPIESWPLVDRGQAKSEGPPLLPKAELQTESLTPVPNSGSSALGSLFKQPSFPANKGTEDSLMGRTRETGTEKNTSSLELEESLPEQPETGRQEEELPRFPCKKQDYSPSSGEAQEVPFALSLSSDGAVSPVGELAAGGDRDLESQAGSLVESKARDAAEEVAPPLPMGASVPSIDSMMRKLEEMGLNLRKDQKKTKKRVSFSEQLFTEEAVAGAALLVEGHSSCPQELNPAWSVAGNASDGEPPESPHAEDSERESVTTPGPATCGAPASPADHLLLPSQEESFSEVPMSEASSAKDTPLFRMEGEDALVTQYQSKASDHEGLLSDPLSDLQLVSDFKSPIMADLNLSLPSIPEVASDDERIDQVEDDGDQVEDDGETAKSSTLDIGALSLGLVVPCPERGKGPSGEADRLVLGEGLCDFRLQAPQASVTAPSEQTTEFGIHKPHLGKSSSLDKQLPGPSGGEEEKPMGNGSPSPPPGTSLDNPVPSPSPSEIFPVTHSFPSSAHSDTHHTSTAESQKKATAEGSAGRVENFGKRKPLLQAWVSPSETHPVSAQPGAGTGSAKHRLHPVKPMNAMATKVANCSLGTATIISENLNNEVMMKKYSPSDPAFAYAQLTHDELIQLVLKQKETISKKEFQVRELEDYIDNLLVRVMEETPNILRIPTQVGKKAGKM
B3: HA-RAB11FIP4 (protein, UniProt Q86YS3 1-637)
chain: MAGGAGWSGAPAALLRSVRRLREVFEVCGRDPDGFLRVERVAALGLRFGQGEEVEKLVKYLDPNDLGRINFKDFCRGVFAMKGCEELLKDVLSVESAGTLPCAPEIPDCVEQGSEVTGPTFADGELIPREPGFFPEDEEEAMTLAPPEGPQELYTDSPMESTQSLEGSVGSPAEKDGGLGGLFLPEDKSLVHTPSMTTSDLSTHSTTSLISNEEQFEDYGEGDDVDCAPSSPCPDDETRTNVYSDLGSSVSSSAGQTPRKMRHVYNSELLDVYCSQCCKKINLLNDLEARLKNLKANSPNRKISSTAFGRQLMHSSNFSSSNGSTEDLFRDSIDSCDNDITEKVSFLEKKVTELENDSLTNGDLKSKLKQENTQLVHRVHELEEMVKDQETTAEQALEEEARRHREAYGKLEREKATEVELLNARVQQLEEENTELRTTVTRLKSQTEKLDEERQRMSDRLEDTSLRLKDEMDLYKRMMDKLRQNRLEFQKEREATQELIEDLRKELEHLQMYKLDCERPGRGRSASSGLGEFNARAREVELEHEVKRLKQENYKLRDQNDDLNGQILSLSLYEAKNLFAAQTKAQSLAAEIDTASRDELMEALKEQEEINFRLRQYMDKIILAILDHNPSILEIKH
B4: HA-tagged RAB11 family interacting protein 5 (RAB11FIP5), full length (protein, UniProt Q9BXF6 1-653)
chain: T1 sequence
B5: endogenous RAB11FIP5 (protein, UniProt Q9BXF6 1-653)
chain: T1 sequence

Assays:
[1] = molecular target: Flag-tagged ORF45 (KSHV open reading frame 45), full length (Kaposi's sarcoma-associated herpesvirus (KSHV), BAC16) (UniProt F5HDE4); assay: co-IP; HEK293T cells cotransfected with a Flag-tagged and an HA-tagged protein; lysed on ice in RIPA buffer; immunoprecipitated with an anti-Flag antibody; western blotting
[2] = molecular target: Flag-tagged C2 region deletion mutant of RAB11FIP5 (Δ16–127) (human) (UniProt Q9BXF6); assay: as above
[3] = molecular target: Flag-tagged RAB11FIP5 truncation mutant 16–127 (C2 domain) (human) (UniProt Q9BXF6); assay: as above
[4] = molecular target: T1, Flag-tagged RAB11FIP5, full length (human); assay: as above
[5] = molecular target: Flag-tagged RAB11FIP5 truncation mutant 1–490 (human) (UniProt Q9BXF6); assay: as above
[6] = molecular target: endogenous ORF45 of KSHV-infected cells (KSHV (endogenous in iSLK.RGB and BCBL1)) (UniProt F5HDE4); assay: co-IP; endogenous proteins; iSLK.RGB cells induced by dox or BCBL1 cells treated with VPA for 24 h; lysates immunoprecipitated with anti-ORF45 or mouse IgG control antibody; western blotting

Molecule | binding [1] | further results
HA-RAB11FIP2 (from UniProt Q7L804 1-512) | no binding | –
HA-tagged ORF45 (KSHV), full length (from UniProt F5HDE4 1-407) | – | binding [2]: no binding; binding [3]: binds; binding [4]: binds; binding [5]: binds
B1 | no binding | –
B2 | no binding | –
B3 | no binding | –
B4 | binds | –
B5 | – | binding [6]: binds
